Data as given in the supplement of paper PMC3334620.
Over roughly 33,000 sequences, “E-score (-0.5 to 0.5)” has its median near -0.056; the highest 2% begin near 0.38. Some of the results follow.

What follows are sequences tested against Stb4 (UniProt P50104) (assay: PBM E-score (8-mer binding enrichment) (E-score (-0.5 to 0.5)); higher = stronger / more preferred TF binding; most listed sequences are background and not binding sites). Settings: protein concentration: 200 nM; construct: GST-DNA-binding domain.
Outline: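 Detection of bound protein used fluorescent anti-GST, with scans normalised by masliner. The proteins were GST-tagged yeast transcription factors applied at about 100-200 nM to universal all-10-mer Agilent arrays made double-stranded by primer extension. Each ungapped eight-base word, pooled with its reverse complement, was scored with an E-score from the Universal PBM Analysis Suite.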

Sequence	PBM E-score
CGTGAGGA	0.071
CTACCAAC	-0.0959
AGTTACCC	0.123
GACGCTGC	-0.0925
GCCAATGA	-0.21
ATCCGGAT	0.459
AGAGATGC	-0.0787
ATGTCCAG	-0.097
AGAATTTC	-0.0676
ATCCGGTA	0.322
ACAACCCT	-0.153
ATTTGAAA	-0.0208
ACCGTACG	-0.127
GGATCGAC	0.278
CCAAAGGA	-0.265
ACATCAAA	-0.0159
CAGTCCAC	-0.306
CCAGGTAG	-0.138
CTTCAAAG	-0.197
ATCAGGAT	0.045
GCTTATCC	0.254
CAATTCGA	-0.215
ATGTACAG	0.0274
CGACGTAG	-0.0433
CGGCTACG	0.3

Sequence	PBM E-score
ACAAAGGG	-0.244
GAGTCTAA	-0.109
CGACAGAA	0.121
GGCACACA	0.14
CGTGTTAA	-0.179
CATCCGAG	0.481
CGTGCCAC	-0.0445
GCTTTCAA	-0.0547
AGAAGTCA	-0.164
ATACTGTC	-0.00802
CTCCTGCA	-0.295
AGGCGCGC	-0.031
ATGTTTAA	-0.0636
AGAGAACG	-0.155
GCCAGGGA	-0.197
ATCACAAA	-0.149
AGTCCTTA	-0.2
CCGTTAAA	0.047
CTCAGAAC	-0.12
CACAGCCG	0.33
AACATCGA	-0.165
ACAGGCTC	-0.0329
ATTGCTAG	-0.0987
GGAGCTCA	-0.0824
GGGGTAAC	-0.122

Sequence	PBM E-score
CGGTTCAA	0.186
AGCGTGGA	-0.104
ATGCGCAT	-0.0617
ATCGGGCG	0.0895
CGATGAGC	0.0814
AATAGTAC	-0.108
CGTACGAG	-0.145
CGTTTGAA	-0.0238
AAGGTGGC	-0.0629
CTATGAAG	-0.128
GCGTGAAC	-0.14
ATACGTTC	-0.239
CAAATCGA	-0.244
ACTCTATC	-0.0391
GGTGCTTA	-0.209
ACCCGGCA	0.28
GACGCCGC	0.022
CCGCAATA	0.182
CAACAAAG	-0.108
GATACGAA	0.0389
ACAGTACG	-0.074
GCGCCCCC	-0.0513
CCGTCGAG	0.0589
ATTTTGCG	-0.0544
AAATAATT	0.11

Sequence	PBM E-score
AAGGGTTA	-0.154
GCTCTGTA	-0.196
AGTAAAAA	0.0111
CTACGCTC	-0.15
ATCTCCTC	0.0416
AGTAGGGA	-0.113
ACGGGGGG	-0.228
AATATTCC	0.347
AATGAACC	-0.0493
ACCACCGT	-0.141
CGGCGCAC	0.229
CCGAATGA	0.375
AGCCTCAC	-0.255
GCATTCCA	-0.153
AAAACTAA	-0.0736
ATGGTGAA	0.0288
CTGATGCA	-0.19
ATGAATCC	0.00087
AATATCGA	-0.0257
GTTAAGTA	-0.0919
CGCATCCC	-0.0101
CTCATATA	0.0386
AAACTATT	0.0429
GATCCGGC	0.396
ACGGGCCT	0.0389

Sequence	PBM E-score
CAGCCGAA	0.392
CACGGGAG	0.166
CGCCGGTA	0.112
CGCGAAAC	0.029
CGTACGTA	-0.187
AGCGCAGA	-0.136
ATCTAGGA	-0.094
AATAAGGT	0.0936
ATGATAAG	0.0379
ACAAGCGT	-0.117
ATCTTTAG	0.0557
CGATGACC	0.0158
CGTCCTGC	-0.121
ACAGCGAT	-0.15
AGTCGCGC	0.0947
CCACTCGG	0.369
TATACGCA	-0.105
CCGATGAC	0.249
ATTCCGCC	0.325
CAAACAGA	-0.189
CGGCTCCA	0.227
ACCAATTC	0.0117
CCAGTGCG	-0.16
CATGTTGC	-0.141
GCGTCTAC	-0.107

Sequence	PBM E-score
ACCCGTAT	0.245
AGATTCTA	-0.128
AATTAAAC	-0.0423
CACGAATA	-0.22
CAAAGTAC	-0.173
GCAAGGAA	-0.0342
AGGCTTAG	-0.0551
ACCACTTA	0.0405
GCAGGAGA	-0.114
CAGGTCGG	0.205
CTTATTGA	-0.0282
GACCCAGC	-0.0269
CTATCCGC	0.396
ATACTACG	-0.0506
AGCGGGCG	0.0147
CAGCCATC	-0.148
CGAAACCA	0.118
ACCGATAT	0.143
CATCAATA	-0.221
AACATTAC	-0.0327
ACAAACGC	-0.0477
CGAACCCG	0.296
CAATAGGA	-0.217
ACGCCGAA	0.317
ACTAGGGA	-0.171

Sequence	PBM E-score
ACTACCAT	-0.13
AGATGGGC	0.0521
TAGTAATA	-0.199
AAGCTTAT	-0.114
AAGAGACT	-0.103
CCATTCGG	0.297
AACAACAC	-0.215
CTCGGTAA	0.431
AGATATCT	-0.13
CCTCTACG	-0.102
GCAGATCA	-0.261
CAAGTGCA	-0.338
ATCGTATA	0.0886
AATTACAC	0.122
ATTATAGG	0.0435
AAACCAAC	-0.078
ACTGACCA	-0.231
ATGGCGGC	0.144
AAACCTAT	-0.175
GCAATTAC	0.0107
TAATCAAA	0.128
CAATAAGG	-0.314
ACACCAAT	0.00344
CCTCCGGC	0.295
ACCAGGAT	0.0452

Sequence	PBM E-score
TCCTGACA	-0.148
CTATATGA	-0.107
CGAATTAG	0.105
GCGGACTA	0.115
GGGTATAC	0.259
CACCTTCG	0.159
TCGCTGAA	-0.0933
CTACTTCA	-0.0345
CGCACCAC	-0.0216
ATAAGTGG	-0.0724
AACGTGCG	-0.0294
AGGCAACA	-0.167
AGGCGGAA	0.278
GGGCGGTA	0.17
TCGCACAA	-0.258
ATACATTG	-0.0328
ATGTAGGC	0.0308
GTGCATCA	-0.158
GGCAGCTA	-0.00249
AGAGCGTC	-0.207
AGGTCAAT	-0.251
ATTCAGGC	-0.194
CCAACCCA	-0.136
ACGACCAT	-0.226
CCACGGTC	-0.169

Sequence	PBM E-score
GGCGCTAC	-0.152
AAAGGCGA	-0.0639
CGGATCGA	0.404
ACACGGTG	0.105
GGTTGAGA	0.0322
TAAAAAAA	0.0362
ACTGTACA	-0.271
CACGCCGC	-0.0572
CGCCGACA	0.227
AGCGTGTC	-0.202
ACTTCTAC	-0.0905
TATCTGGA	-0.0963
CGGTGTGC	0.0544
ACGGCTTG	-0.0119
ATTCCTAG	-0.151
CTATATAA	-0.121
CAGCCAAC	-0.178
CGGACCCA	0.209
AATATTCT	0.103
